# PubChem BioAssay AID1457 (National Center for Advancing Translational Sciences (NCATS), 2008)
# The campaign covered roughly 210,000 compounds. About 730 (0.35%) were called active. The inconclusive results got no clear call from the source; some entries with a clear call stand among them for comparison. Calls come from the whole dose curve; as a rule, active = well fitted inhibition curve with a large enough effect; inconclusive = small, poorly fitted or top-dose-only effect; inactive = no such curve, though single readings can be large or run the other way. Potencies of inconclusive entries are doubtful fits and often do not repeat.
# Test: qHTS Assay for Identifying the Cell-Membrane Permeable IMPase Inhibitors: Potentiation with Lithium; note: nearly all actives have a fitted effect of over 50% in size
# Conditions: CHO-M1 cells, IP1 TR-FRET (IP-One), carbachol + lithium; series mostly up to 59.4 µM
# Outline: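 Readout is a homogeneous TR-FRET IP1 immunoassay (Ex 320, Em 665 and 620), where raised cytosolic IP1 lowers signal. Cells were CHO-M1 treated 30 min at 37C with test compounds plus a little lithium; AC50 values came from Hill-equation fitting.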
# Potency is the fitted concentration of half-maximal effect.
row,Compound,Potency
1,O=C(Nc1ccccc1)OC1CCC2CC1CCC2OC(=O)Nc1ccccc1 (stereo unspecified),"inconclusive: 31.6 µM [inhibitor, partial curve, poor fit]"
2,CCC(=NCCc1c(C)[nH]c2ccc(OC(F)(F)F)cc12)C1=C(O)CC(c2ccccc2)CC1=O (stereo unspecified),"inconclusive: 5.01 µM [inhibitor, single point]"
3,CNc1oc(-c2ccccc2)nc1C#N,"inconclusive: 22.4 µM [inhibitor, single point]"
4,O=C(N=c1ccn(-c2nc3ccccc3nc2NS(=O)(=O)c2ccccc2)cc1)c1cccs1,"inconclusive: 28.2 µM [inhibitor, single point]"
5,CC1CCN(S(=O)(=O)c2ccc(-c3nnc(SCc4cccnc4)o3)cc2)CC1,"inconclusive: 28.2 µM [inhibitor, single point]"
6,COc1ccc(-c2nn(C)c3sc(C(=O)NCc4ccco4)cc23)cc1OC,"inconclusive: 15.8 µM [inhibitor, single point]"
7,O=C(COc1ccccc1)Nc1cccc(-c2nc3cc4ccccc4cc3[nH]2)c1,"inconclusive: 28.2 µM [inhibitor, single point]"
8,O=C(CNC(=S)NC(=O)C1CCCCC1)c1ccccc1,"inconclusive: 22.4 µM [inhibitor, single point]"
9,CCOC(=O)c1c(C)nc2sc3c(c2c1-c1ccc(OC)cc1)NC(c1ccccc1)NC3=O (stereo unspecified),"inconclusive: 28.2 µM [inhibitor, single point]"
10,Cc1c(/C(O)=C2/C(=O)C(=O)N(CCN3CCOCC3)C2c2cccs2)cnn1-c1ccccc1 (stereo unspecified),"inconclusive: 28.2 µM [inhibitor, single point]"
11,CCN(CC)c1ccc(-c2n[nH]c(=S)n2-c2ccccc2C)cc1,"inconclusive: 28.2 µM [inhibitor, single point]"
12,O=C(NCCN1CCOCC1)c1ccc2c(c1)N(Cc1c(F)cccc1Cl)C(=O)c1ccccc1S2,inactive
13,O=C(NCCCn1ccnc1)c1cc(-c2ccncc2)nc2ccccc12,"inconclusive: 1.12 µM [inhibitor, partial curve]"
14,N#CCCCN1C(=O)C(O)(CC(=O)c2ccc3c(c2)OCCO3)c2ccccc21 (stereo unspecified),inactive
15,Cc1ccc(NC(=O)CSc2nnc(-c3ccc(S(=O)(=O)N4CCOCC4)cc3)n2C)cc1,"inconclusive: 25.1 µM [inhibitor, single point]"
16,CCCc1nc(SCC(=O)N2CCc3ccccc3C2)c2ccccc2n1,"inconclusive: 22.4 µM [inhibitor, single point]"
17,CCCCN(C(=O)NC(=O)C1=C(N2CCOCC2)/C(=C/c2ccccc2)CC1)S(C)(=O)=O,"inconclusive: 31.6 µM [inhibitor, single point]"
18,CCOC(=O)c1sc2nc(C)[nH]c(=S)c2c1C,"inconclusive: 10 µM [inhibitor, partial curve]"
19,CCCNC(=O)CCc1c(C)nc2nc(C)nn2c1C,"inconclusive: 3.16 µM [inhibitor, single point]"
20,CC(=O)c1cccc(NC(=O)CO/N=C2/CCCc3nonc32)c1,"inconclusive: 3.55 µM [inhibitor, full curve, poor fit]"
21,Cc1ccnc(Sc2ccc([N+](=O)[O-])cc2[N+](=O)[O-])n1,inactive
22,Cc1cccc(-c2nc(=S)c3c(n2Cc2ccco2)CCCC3)c1,"inconclusive: 10 µM [inhibitor, partial curve]"
23,c1ccc(Nc2ccc3c4c(cccc24)CC3)cc1,"inconclusive: 31.6 µM [inhibitor, single point]"
24,COC(=O)c1c(NC(=O)c2ccc(Br)o2)sc(C)c1C,"inconclusive: 28.2 µM [inhibitor, single point]"

row,Compound,Potency
1,Cc1ccc(/C=c2\sc3nc(-c4ccco4)nn3c2=O)o1,"inconclusive: 12.6 µM [inhibitor, single point]"
2,CC(=O)c1cc(C#N)c(SCC(=O)Nc2nccs2)nc1C,"inconclusive: 22.4 µM [inhibitor, single point]"
3,Cc1cc(C)n(-c2cccc(CN(C)Cc3nc(-c4cnccn4)no3)c2)n1,inactive
4,CCCc1nc2c(sc3nc4c(cc32)COC(C)(C)C4)c(=O)n1Cc1ccco1,inactive
5,O=C(Cn1cnc2c(nnn2Cc2ccc(F)cc2)c1=O)NCc1ccc(F)cc1,inactive
6,CC1CCc2c(C(=O)NCC3CCCO3)csc2C1 (stereo unspecified),"inconclusive: 31.6 µM [inhibitor, single point]"
7,Cc1ccc(Sc2c(O)c3ccccc3n(C)c2=O)cc1,active: 10 µM
8,O=c1c(C(c2ccc(O)cc2)c2c(O)nc3n(c2=O)CCCS3)c(O)nc2n1CCCS2,inactive
9,Cc1ccc(Sc2c(C=O)c3ccccc3n2C)cc1,"inconclusive: 7.94 µM [inhibitor, partial curve]"
10,COc1ccc(C(=O)O)cc1N1C(=O)Nc2ccccc2N1O,"inconclusive: 1.58 µM [inhibitor, partial curve]"
11,CN(C)c1ncnc2ccc(-c3ccccc3C#N)cc12,"inconclusive: 28.2 µM [inhibitor, single point]"
12,O=c1[nH]c(NNC(=S)NCc2ccccc2)nc2c1C1(CCCCC1)Cc1ccccc1-2,inactive
13,Cc1cc(=O)oc2cc(OCc3cc4c(cc3Cl)OCO4)ccc12,"inconclusive: 15.8 µM [inhibitor, single point]"
14,CCc1ccc(NC(=O)CNS(=O)(=O)c2c(C)noc2C)cc1,"inconclusive: 10 µM [inhibitor, partial curve]"
15,CC1CN=C2C(C(=O)Nc3ccccc3)=C(O)CC(c3ccccc3)N21 (stereo unspecified),inactive
16,CC1=Nc2cc(C(=O)O)ccc2Sc2ccc(Br)cc21,"inconclusive: 5.01 µM [inhibitor, single point]"
17,Cc1ccc(O)c(-c2cc(-c3cccc(F)c3)n[nH]2)c1,inactive
18,CCCCOc1ccc(CSc2nnc(C)n2N)cc1[N+](=O)[O-],inactive
19,Cc1cc(=O)n2nc(-c3ccccc3)sc2c1C#N,"inconclusive: 28.2 µM [inhibitor, single point]"
20,O=C(O)c1cc(-c2c[nH]c3ccccc23)nc2ccc3ccccc3c12,"inconclusive: 2.82 µM [inhibitor, partial curve]"
21,C=CC[C@@](C(C)=O)(C(=O)OC)C(NC(=O)OC)c1ccccc1 (stereo partly specified),inactive
22,Cc1ccc(Sc2cnc3ccccc3n2)cc1,"inconclusive: 10 µM [inhibitor, single point]"
23,C[n+]1ccccc1N1CCN(c2ccccc2Cl)CC1,inactive
24,Cc1cc2nc(-c3ccc(SCC(=O)N4CCc5ccccc54)nc3)[nH]c2cc1C,"inconclusive: 28.2 µM [inhibitor, single point]"

row,Compound,Potency
1,COc1ccc(N(C2=NCCCS2)S(=O)(=O)c2ccc(C(C)(C)C)cc2)cc1,inactive
2,COC(=O)CSc1nc(N)c(C#N)c(-c2ccco2)c1C#N,"inconclusive: 28.2 µM [inhibitor, single point]"
3,COc1ccc(C2CC(c3cccs3)=NN2c2ccc(F)cc2)cc1OC (stereo unspecified),"inconclusive: 11.2 µM [inhibitor, single point]"
4,Cc1ccn2cc(-c3ccc(NS(=O)(=O)c4ccccc4)cc3)nc2c1,inactive
5,Cc1nc2ccccc2nc1SCC(=O)N1CCC(C)CC1,active: 12.6 µM
6,CCOC(=O)Cc1csc(NC(=O)CSc2nc(N)c3c(C)c(C)sc3n2)n1,"inconclusive: 28.2 µM [inhibitor, single point]"
7,CCOC(=O)N/N=C(C)/C=C/c1ccccc1,inactive
8,Cc1ccc(-c2nc3ccccc3s2)cc1NC(=S)NC(=O)c1ccccc1,"inconclusive: 31.6 µM [inhibitor, single point]"
9,COc1ccc(NS(=O)(=O)c2cc(NC(=O)c3cc(=O)c4ccccc4o3)ccc2OC)cc1,"inconclusive: 12.6 µM [inhibitor, single point]"
10,O=C(NCc1ccccn1)c1c(O)c2cccc3c2n(c1=O)CC3,"inconclusive: 25.1 µM [inhibitor, single point]"
11,COc1ccc(-c2cn3c(C)c(C(=O)Nc4cc(NC(C)=O)ccc4OC)sc3n2)cc1,active: 4.47 µM
12,O=C1C(=O)c2c(C(=O)c3ccccc3)coc2-c2ccccc21,inactive
13,O=C(CSc1nc2c(sc3ccccc32)c(=O)n1CCO)NCc1ccco1,"inconclusive: 25.1 µM [inhibitor, single point]"
14,N#Cc1cc2c(ccc3ccccc32)oc1=O,"inconclusive: 11.2 µM [inhibitor, partial curve]"
15,COC(=O)Cc1ccc(NC(=S)Nc2cccc(C)n2)cc1,inactive
16,COc1ccc(C(=O)Nc2ccc(S(=O)(=O)NCc3ccco3)cc2)cc1OC,"inconclusive: 15.8 µM [inhibitor, single point]"
17,O=C(CSc1nnc2scc(-c3ccccc3)n12)N1CCN(Cc2ccccc2)CC1,inactive
18,CCOC(=O)c1csc(NC(=O)c2ccc(OC)c(OC)c2)n1,"inconclusive: 28.2 µM [inhibitor, single point]"
19,CCOC(=O)c1ccc(NC(=S)N2CCN(c3ccc(N4CCOCC4)nn3)CC2)cc1,"inconclusive: 28.2 µM [inhibitor, single point]"
20,O=C(CSC1=NCCS1)NC1CCCCC1,inactive
21,CN(C)S(=O)(=O)c1ccc(Nc2ccc(-c3ccc4c(c3)OCCO4)nn2)cc1,"inconclusive: 1 µM [inhibitor, full curve, poor fit]"
22,CCCCOC(=O)Cn1c(=O)c2c(nc3n2CCCCN3c2ccc(C)cc2)n(C)c1=O,inactive
23,O=C(CN1CCN(Cc2ccccc2)CC1)NCCNc1ccc([N+](=O)[O-])cn1,inactive
